B1: LINE1-mini (parent)
chain: GGCAGAGCUCAACACAGCGUGGCAAAGUGGCUGUGGCUAGACUGCC

The source gives no read counts; variants with many changes may rest on few reads.

Variants of B1 are the subject of this data set. The experiment in a line: self-cleavage, relative activity (ratio to wild type); higher = more cleavage; in vitro, sequencing; the parent is a self-cleaving ribozyme.
With GGCAGAGCUCAACACAGCUUGGCAAAGUGGCUAUGGCUAGAAUGCC [G19U G33A C42A], the self-cleavage stood at 0.07.

As to GGCAGAGCUCAACACAGCGAUGCAAAUUGGCUGUUGCUAGUCUGGC [U20A G21U G27U G35U A41U C45G], the self-cleavage was determined as 0.02. Regarding GGCAGAGCUCAACACAGCGAGGCAAAGUGGCUGUGCCUUGACUGCC [U20A G36C A39U], the self-cleavage turned out to be 0.04. Turning to GGCAGAGCUCAACACAGCUUGGCAAAGUGGCUGUAGCUAGACAGCC [G19U G35A U43A], the self-cleavage amounted to 0.08.

Consider GGCAGAGCUCAACACAGCGCGGCGAAGUGGCUGCGGGUAGACUGCC [U20C A24G U34C C37G], for which the self-cleavage was 0.04. To GGCAGAGCUCAACACAGCGAGGCAAAGCGGCUGUGGCUGGAAUGCC [U20A U28C A39G C42A] belongs 0.04; to GGCAGAGCUCAACACAGCGCGUCAAAGUGGCUGUGGCUAGACUGGC [U20C G22U C45G], 0.1; to GGCAGAGCUCAACACAGCGAGGCAAAGUGGUUGUGGCAAGACUGCC [U20A C31U U38A], 0.01.

Consider GGCAGAGCUCAACACAGCUUGGCAAAGUGGCUGGGGCUAGACUCCC [G19U U34G G44C], for which the self-cleavage is 0.07.

For the variant GGCAGAGCUCAACACAGCGCUGCAAUGUGGCUGUGGCUAGACUGAC [U20C G21U A26U C45A], the self-cleavage amounted to 2.43. Consider GGCAGAGCUCAACACAGCGAGGCAAAGUGGUUGUUGCGAGACUUCC [U20A C31U G35U U38G G44U], for which the self-cleavage was 0.03. Turning to GGCAGAGCUCAACACAGCGCUGCAAAGUGGCUGUGGCUAUACUGCC [U20C G21U G40U], the self-cleavage was 0.09. Consider GGCAGAGCUCAACACAGCUUGGCAAAGUGGCUGCGGCUAGACUGAC [G19U U34C C45A], for which the self-cleavage was 0. Regarding GGCAGAGCUCAACACAGCGAGGCAAAGUGGUUCUGGCUAGCCUGGC [U20A C31U G33C A41C C45G], the self-cleavage stood at 0.06.

Turning to GGCAGAGCUCAACACAGCGAGGCAAUGUGGCUGUGUCUCGACUGCC [U20A A26U G36U A39C], the self-cleavage came to 0.05.

For GGCAGAGCUCAACACAGCGAAGCAAAGUGGCUAGGGCUAGACUGCC [U20A G21A G33A U34G], the self-cleavage worked out at 0.07. Turning to GGCAGAGCUCAACACAGCUCGGCAAAGUGGCAAUCGCUAGACUGCC [G19U U20C U32A G33A G35C], the self-cleavage was determined as 0.01.

For GGCAGAGCUCAACACAGCGCGGCAAAGUGGUUGUGGCUAGAAUGAC [U20C C31U C42A C45A], the self-cleavage was determined as 0.04.

For GGCAGAGCUCAACACAGCUUGGCAAAGUGGCUGUGGUUCGACUGCC [G19U C37U A39C], the self-cleavage turned out to be 0.01. On to GGCAGAGCUCAACACAGCUUGGCAAAUAGGCUGUAGCUAGACUGCC [G19U G27U U28A G35A], for which the self-cleavage amounted to 0.09. In the case of GGCAGAGCUCAACACAGCGAGGCAAAGUGGCUGUGUCUAAACUGCC [U20A G36U G40A], the self-cleavage was 0.08. To GGCAGAGCUCAACACAGCUUGUCAAAGUGGCAGUGGCUAGACUGCC [G19U G22U U32A] belongs 0.15.

Regarding GGCAGAGCUCAACACAGCGAGGCAAAGUGGCUGUGGCUAGCCUGGC [U20A A41C C45G], the self-cleavage was 0.03. Regarding GGCAGAGCUCAACACAGCUUGGUAAAGUGGCUGUGGCUAGACUUCC [G19U C23U G44U], the self-cleavage was 0.16.

GGCAGAGCUCAACACAGCUUCGCAUAGUGGCUUUGGCUAGACUGCC [G19U G21C A25U G33U]: the self-cleavage was found to be 1.48. In the case of GGCAGAGCUCAACACAGCGAGGCAAAGGGGCAGUGGCUAGACGCCC [U20A U28G U32A U43G G44C], the self-cleavage was 0.01. With GGCAGAGCUCAACACAGCGAGGCUAAGCGGCUGUGGCUAGACUGCC [U20A A24U U28C], the self-cleavage was 0.5.

For the variant GGCAGAGCUCAACACAGCUUGGCAAAGUGGCCGUGGCUUGUCUGCC [G19U U32C A39U A41U], the self-cleavage is 0.1. On to GGCAGAGCUCAACACAGCGAGGCAAAGUGGCUGAGGCUAGAGUGCC [U20A U34A C42G], for which the self-cleavage came out at 0.05. For GGCAGAGCUCAACACAGCGAUGCAGAGUGGCUGUGGCUAGACUGUC [U20A G21U A25G C45U], the self-cleavage amounted to 0.21. To GGCAGAGCUCAACACAGCGCGGAAAAGUAUUUGUGACUAGGCUGCC [U20C C23A G29A G30U C31U G36A A41G] belongs 0.03; to GGCAGAGCUCAACACAGCGAGGCAAAGUGGCGGUGGCGAGACUGCC [U20A U32G U38G], 0.03; to GGCAGAGCUCAACACAGCGAGGCAAAGUCGCUGUGGCUAGACCGCC [U20A G29C U43C], 0.1. Regarding GGCAGAGCUCAACACAGCUUGGCAAAGUGGUUGUGGCUAGACUACC [G19U C31U G44A], the self-cleavage was found to be 0.03. Turning to GGCAGAGCUCAACACAGCGAGGCAAAGUGGCUGUGGGUUGACUGCC [U20A C37G A39U], the self-cleavage was 0.

Regarding GGCAGAGCUCAACACAGCUUGGCAAAGUGGCUGUGGCUAGACUCCG [G19U G44C C46G], the self-cleavage was 0.07.

Regarding GGCAGAGCUCAACACAGCGCCGCAAAGUAGCUGUGGCUAGACUGCA [U20C G21C G29A C46A], the self-cleavage amounted to 0.37. Take GGCAGAGCUCAACACAGCGAGGCAAAGUGGCUGUUGCUAGCCUGCC [U20A G35U A41C]: the self-cleavage came to 0.03. To GGCAGAGCUCAACACAGCUUAGCAAAGUGGCUGUGGGUCGACUGCC [G19U G21A C37G A39C] belongs 0.04; to GGCAGAGCUCAACACAGCGAGGCGCAGUGGCUGUGGCUAGACUGCC [U20A A24G A25C], 0.42; to GGCAGAGCUCAACACAGCGCGGUGAGAUGGCUUUGGCUAGACUGCC [U20C C23U A24G A26G G27A G33U], 0.06. As for GGCAGAGCUCAACACAGCGCGGCAGAGUGACUGUGGCUAGACUGCC [U20C A25G G30A], the self-cleavage came out at 0.16. To GGCAGAGCUCAACACAGCGAGGCAAAGUUGCUGUUGCUAGACUGCC [U20A G29U G35U] belongs 0.04. Regarding GGCAGAGCUCAACACAGCGCGGUAAAGUGGCUGUGGCUAAACUGCC [U20C C23U G40A], the self-cleavage came to 0.06.

For the variant GGCAGAGCUCAACACAGCUUGGCAAAGUGGCUGUGACUAGACUGGC [G19U G36A C45G], the self-cleavage is 0.03. On to GGCAGAGCUCAACACAGCGCGCCAAAGUGGGUGUGGCUAGAAUGCC [U20C G22C C31G C42A], for which the self-cleavage was 0.02. In the case of GGCAGAGCUCAACACAGCUUGACAUAGUGACUGUGUCUAGACUGCC [G19U G22A A25U G30A G36U], the self-cleavage stood at 0.15. With GGCAGAGCUCAACACAGCGAGGUAAAGUGGCUGGGGCUAGACUGCU [U20A C23U U34G C46U], the self-cleavage was determined as 0.44.

With GGCAGAGCUCAACACAGCUUGGCAAAGUGGCUCUGGCAAGACUGCC [G19U G33C U38A], the self-cleavage is 0.02. In the case of GGCAGAGCUCAACACAGCGAGGCAAGGUGGCUGUGGCAAGCCUGCC [U20A A26G U38A A41C], the self-cleavage was determined as 0.01.

On to GGCAGAGCUCAACACAGCGAGGCAAAGUGGUUGUGGCUGGACUGCC [U20A C31U A39G], for which the self-cleavage stood at 0.02. With GGCAGAGCUCAACACAGCGAGGCAAAGUGGCUGUGGAUAGACUUCC [U20A C37A G44U], the self-cleavage was 0.04. Turning to GGCAGAGCUCAACACAGCGAUGCAAGGUGGCUGUGGCUAGACUGCC [U20A G21U A26G], the self-cleavage worked out at 0.75. Consider GGCAGAGCUCAACACAGCUCGGCAAAGUGGCUAUGGCUAGACUGCC [G19U U20C G33A], for which the self-cleavage is 0.03. With GGCAGAGCUCAACACAGCGAGGCAAAGUGGCUGACGCUAGACUGCC [U20A U34A G35C] the figure was 0.01; with GGCAGAGCUCAACACAGCGCGGCAAAGUGGGGGUGGCUGGACUGCC [U20C C31G U32G A39G], 0.01.

For the origin of these results see the RNAGym collection of RNA variant scans (doi:10.7554/elife.90254).
